Assay results published in a collection of fitness landscapes (doi:10.1126/science.1257360).
The other results are listed elsewhere or left out.

B1: PhoQ; a variant is named by its letters at X, in order, P23837 (parent)
chain: MKKLLRLFFPLSLRVRFLLATAAVVLVLSLAYGMVALIGYSVSFDKTTFRLLRGESNLFYTLAKWENNKLHVELPENIDKQSPTMTLIYDENGQLLWAQRDVPWLMKMIQPDWLKSNGFHEIEADVNDTSLLLSGDHSIQQQLQEVREDDDDAEMTHSVAVNVYPATSRMPKLTIVVVDTIPVELKSSYMVWSWFIYVLSANLLLVIPLLWVAAWWSLRPIEALAKEVRELEEHNRELLNPATTRELTSLVRNLNRLLKSERERYDKYRTTLTDLTHSLKTPLXXLQXXLRSLRSEKMSVSDAEPVMLEQISRISQQIGYYLHRASMRGGTLLSRELHPVAPLLDNLTSALNKVYQRKGVNISLDISPEISFVGEQNDFVEVMGNVLDNACKYCLEFVEISARQTDEHLYIVVEDDGPGIPLSKREVIFDRGQRVDTLRPGQGVGLAVAREITEQYEGKIVAGESMLGGARMEVIFGRQHSAPKDE

Variants of: B1
Test: enrichment ratio after two sorts for PhoP signalling (ratio (wild type AVST 3.29)); higher = more functional
Settings: with PhoP (E. coli)

Variant | enrichment ratio
WKIE | ≤ 0.25
GLCV | 7.06
FMIL | ≤ 0.25
FFPC | ≤ 0.25
PALQ | ≤ 0.25
SKGC | ≤ 0.25
FTFE | ≤ 0.25
NNTQ | ≤ 0.25
NVHK | ≤ 0.25
HGPN | ≤ 0.25
GIVD | ≤ 0.25
PNLK | ≤ 0.25
APGR | ≤ 0.25
HIFM | ≤ 0.25
HGRS | ≤ 0.25
DWIY | ≤ 0.25
NWFI | ≤ 0.25
KPEV | ≤ 0.25
MYQG | ≤ 0.25
VWMA | ≤ 0.25
QKNP | ≤ 0.25
TQFF | 7.62
HYAW | ≤ 0.25
HCKW | ≤ 0.25
APPK | ≤ 0.25

Variant | enrichment ratio
VPLM | ≤ 0.25
IRQP | ≤ 0.25
PHWG | ≤ 0.25
YATY | ≤ 0.25
FYGH | ≤ 0.25
RHTW | ≤ 0.25
AALW | ≤ 0.25
RWWP | ≤ 0.25
ICHK | ≤ 0.25
WDRS | ≤ 0.25
NGCE | ≤ 0.25
YWTE | ≤ 0.25
PWEC | ≤ 0.25
EHAE | ≤ 0.25
MALW | ≤ 0.25
SWRD | ≤ 0.25
HYRE | ≤ 0.25
SDDP | ≤ 0.25
TWQL | ≤ 0.25
IADW | ≤ 0.25
VPFS | ≤ 0.25
WFPW | ≤ 0.25
MIWQ | 24.2
HCYG | ≤ 0.25
MTSA | ≤ 0.25

Variant | enrichment ratio
LTDF | ≤ 0.25
AEQL | 10.6
SSPQ | ≤ 0.25
NCKT | ≤ 0.25
LKWP | ≤ 0.25
GYPE | ≤ 0.25
ERWR | ≤ 0.25
VWYN | ≤ 0.25
PHHF | ≤ 0.25
PEHT | ≤ 0.25
IVSF | ≤ 0.25
EFTP | ≤ 0.25
RINM | ≤ 0.25
EGRD | ≤ 0.25
PSME | ≤ 0.25
FLVL | ≤ 0.25
GHTC | ≤ 0.25
MWNA | ≤ 0.25
GQTC | ≤ 0.25
LCSI | ≤ 0.25
YNLI | 3.53
SNIH | ≤ 0.25
GWQP | ≤ 0.25
YCPP | ≤ 0.25
FECA | ≤ 0.25

Variant | enrichment ratio
YHDA | ≤ 0.25
GAKP | ≤ 0.25
PPVT | ≤ 0.25
MSNK | ≤ 0.25
HWDD | ≤ 0.25
VQNS | ≤ 0.25
KRML | ≤ 0.25
FQSK | ≤ 0.25
WTYG | ≤ 0.25
MDPM | ≤ 0.25
FFYY | ≤ 0.25
NKGF | ≤ 0.25
WMHW | ≤ 0.25
SNRV | ≤ 0.25
KDII | ≤ 0.25
LLWE | ≤ 0.25
RDAE | ≤ 0.25
MRQM | ≤ 0.25
MIFQ | 9.72
PQKR | ≤ 0.25
LWYY | ≤ 0.25
TVGL | 8.95
VPYE | ≤ 0.25
NGQL | ≤ 0.25
VCPY | ≤ 0.25

Variant | enrichment ratio
QHLD | ≤ 0.25
AQQF | ≤ 0.25
IDDF | ≤ 0.25
KYPM | ≤ 0.25
SINN | 5.42
TDNI | ≤ 0.25
RFIT | ≤ 0.25
TYQA | ≤ 0.25
EDAT | 4.61
DYRR | ≤ 0.25
WNYR | ≤ 0.25
RRQT | ≤ 0.25
DQYA | ≤ 0.25
KERM | ≤ 0.25
ARFG | ≤ 0.25
NHLA | ≤ 0.25
NEHG | ≤ 0.25
MMPH | ≤ 0.25
HNQF | ≤ 0.25
EGLQ | ≤ 0.25
YDFI | ≤ 0.25
SRWR | ≤ 0.25
HWDH | ≤ 0.25
VPSD | ≤ 0.25
EDVG | ≤ 0.25

Variant | enrichment ratio
GQLS | 8.7
GPKA | ≤ 0.25
SVDR | ≤ 0.25
KCYI | ≤ 0.25
VRSS | ≤ 0.25
DAEE | ≤ 0.25
TFND | ≤ 0.25
HAMG | ≤ 0.25
YQMG | 0.271
SFMK | ≤ 0.25
SHYM | 0.284
TKTK | ≤ 0.25
QTYG | ≤ 0.25
KMPN | ≤ 0.25
MCYT | 2.07
PSWM | 0.304
SIMG | 13.2
TPHC | ≤ 0.25
LSKH | ≤ 0.25
KKNL | ≤ 0.25
DDRT | ≤ 0.25
IWSG | 0.954
FTNR | ≤ 0.25
WPII | ≤ 0.25
GQPQ | ≤ 0.25

Variant | enrichment ratio
KGFM | ≤ 0.25
ANMF | 0.299
FYVA | ≤ 0.25
GQCP | ≤ 0.25
VAPH | ≤ 0.25
PGTH | ≤ 0.25
FTQE | ≤ 0.25
THTY | 1.96
WVSP | 0.56
AMIN | ≤ 0.25
LKET | ≤ 0.25
KYMM | ≤ 0.25
GVLA | 4.95
AVAA | ≤ 0.25
CSSL | 2.98
TMCI | 12.4
MFVY | ≤ 0.25
IDRA | ≤ 0.25
FRTF | ≤ 0.25
EDIS | ≤ 0.25
LLST | ≤ 0.25
IQMW | ≤ 0.25
QPTN | ≤ 0.25
GIQK | ≤ 0.25
NRKI | ≤ 0.25

Variant | enrichment ratio
GWLG | ≤ 0.25
MNMK | ≤ 0.25
DQPI | ≤ 0.25
ICSA | ≤ 0.25
YHMF | ≤ 0.25
WRHH | ≤ 0.25
SLVY | ≤ 0.25
YDIE | 3.39
IETV | ≤ 0.25
SKEP | ≤ 0.25
NSFT | ≤ 0.25
VWKR | ≤ 0.25
PVQD | ≤ 0.25
NLNR | ≤ 0.25
MTTT | ≤ 0.25
NFYA | ≤ 0.25
LWKI | ≤ 0.25
FHAV | ≤ 0.25
HTFH | ≤ 0.25
FDGH | ≤ 0.25
